From paper PMC9845754 come the findings set out here.

Chains of the proteins cited; added tags and fusions are not shown. Lines headed by an entry give the natural chain unless they say otherwise; changes in a name come on top.
UniProt O82481: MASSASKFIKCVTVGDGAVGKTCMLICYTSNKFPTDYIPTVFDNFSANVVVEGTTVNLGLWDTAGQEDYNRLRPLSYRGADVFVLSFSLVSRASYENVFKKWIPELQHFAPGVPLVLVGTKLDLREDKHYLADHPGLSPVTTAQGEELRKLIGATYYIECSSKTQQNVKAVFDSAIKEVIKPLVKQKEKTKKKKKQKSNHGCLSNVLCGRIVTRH

Results are given in words; binding and its absence hold for the method and conditions named. For some assays here: Binding seen in cells or lysates may run through a third protein. Some binding calls cover weakened binding; strength is not graded here. Sequences can lack the tags named with a protein.

Assay [1] addresses constitutively active ROP11 (rop11CA), yeast two-hybrid fusion (Arabidopsis) (UniProt O82481). The experiment in a line: two-hybrid; S. cerevisiae PJ69-4a; dilution series 1, 1/10, 1/100, 1/1,000 on -Leu, Trp, His (-LTH) plates with 1 mM 3-AT, -LT plates as growth control; 28°C.
Assay [2] concerns the target T1, ICR3, yeast two-hybrid fusion (Arabidopsis) (UniProt Q9LSS5).
T1 sequence: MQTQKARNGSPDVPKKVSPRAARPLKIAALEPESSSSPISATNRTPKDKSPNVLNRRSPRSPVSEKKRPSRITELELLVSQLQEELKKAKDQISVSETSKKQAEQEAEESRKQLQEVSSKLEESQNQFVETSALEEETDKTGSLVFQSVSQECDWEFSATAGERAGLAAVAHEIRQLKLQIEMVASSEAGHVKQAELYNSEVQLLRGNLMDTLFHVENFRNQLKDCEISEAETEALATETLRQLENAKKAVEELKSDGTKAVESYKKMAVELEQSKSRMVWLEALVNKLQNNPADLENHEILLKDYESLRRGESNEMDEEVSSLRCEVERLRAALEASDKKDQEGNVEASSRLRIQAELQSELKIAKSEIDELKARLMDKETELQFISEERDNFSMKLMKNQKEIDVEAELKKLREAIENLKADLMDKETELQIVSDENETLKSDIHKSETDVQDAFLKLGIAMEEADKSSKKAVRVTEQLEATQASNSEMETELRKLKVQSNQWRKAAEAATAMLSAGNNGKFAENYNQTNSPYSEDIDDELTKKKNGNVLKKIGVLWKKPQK
The description is as above.

For assay [3], the target named is T2, ICR2, yeast two-hybrid fusion (Arabidopsis) (UniProt Q9ZQC5).
T2 sequence: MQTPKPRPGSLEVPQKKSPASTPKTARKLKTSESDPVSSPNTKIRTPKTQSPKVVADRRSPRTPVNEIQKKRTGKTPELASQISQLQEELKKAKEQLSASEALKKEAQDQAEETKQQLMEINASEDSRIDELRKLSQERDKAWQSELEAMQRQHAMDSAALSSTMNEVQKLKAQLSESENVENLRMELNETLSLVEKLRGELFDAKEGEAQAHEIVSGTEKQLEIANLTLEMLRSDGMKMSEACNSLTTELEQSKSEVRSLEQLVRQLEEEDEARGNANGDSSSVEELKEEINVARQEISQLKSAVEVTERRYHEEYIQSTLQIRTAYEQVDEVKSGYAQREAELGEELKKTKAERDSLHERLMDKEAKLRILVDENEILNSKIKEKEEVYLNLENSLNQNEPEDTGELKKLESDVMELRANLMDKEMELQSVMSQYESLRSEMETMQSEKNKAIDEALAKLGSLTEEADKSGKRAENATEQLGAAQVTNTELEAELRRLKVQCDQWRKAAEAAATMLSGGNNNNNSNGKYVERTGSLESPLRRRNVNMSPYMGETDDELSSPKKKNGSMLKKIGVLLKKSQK
The description is as above.

The target of assay [4] is T3, ICR5, yeast two-hybrid fusion (Arabidopsis) (UniProt Q8VYU8).
T3 sequence: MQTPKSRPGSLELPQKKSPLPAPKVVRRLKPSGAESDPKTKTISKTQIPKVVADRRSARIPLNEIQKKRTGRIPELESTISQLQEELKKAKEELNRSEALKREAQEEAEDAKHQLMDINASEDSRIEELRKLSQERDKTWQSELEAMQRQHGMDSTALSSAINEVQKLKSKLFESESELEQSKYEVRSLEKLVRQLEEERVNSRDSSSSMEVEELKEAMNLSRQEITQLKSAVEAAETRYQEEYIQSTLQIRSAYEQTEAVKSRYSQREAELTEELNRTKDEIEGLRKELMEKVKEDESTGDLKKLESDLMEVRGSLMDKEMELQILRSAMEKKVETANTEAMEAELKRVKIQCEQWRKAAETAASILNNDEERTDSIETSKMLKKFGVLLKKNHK
Described as above.

Assay [5] addresses T3, ICR5, yeast two-hybrid fusion (Arabidopsis). The experiment in a line: two-hybrid; yeast two-hybrid in S. cerevisiae PJ69-4a; pGBT9.BS and pGAD.GH fusions; growth of four decimal dilutions on -Leu -Trp -His medium with 1 mM 3AT, 28°C.
Assay [6] deals with T4, ICR5-YC (interactor of constitutively active ROP 5 fused to the C-terminal half of YFP) (Arabidopsis) (UniProt Q8VYU8).
T4 sequence: T3 sequence
The experiment in a line: split reporter; BiFC with halves of YFP (YN, YC), transient expression in N. benthamiana leaf epidermis cells; confocal imaging, for some panels lambda scan 521-690 nm and linear unmixing of the YFP signal.

Assay [7] concerns the target ICR3-YC (interactor of constitutively active ROP 3 fused to the C-terminal half of YFP) (Arabidopsis) (UniProt Q9LSS5). The assay is described as above.
The target of another assay is YN-ROP11 (UniProt O82481). The assay is described as above.

B1: ICR5, yeast two-hybrid fusion (protein, UniProt Q8VYU8 1-396)
chain: T3 sequence
Regarding B1, the binding entry was “binds” in assay [1]; “no binding” in assay [2]; “no binding” in assay [3]; “no binding” in assay [4]; “no binding” in assay [5].

B2: ICR3-YC (interactor of constitutively active ROP 3 fused to the C-terminal half of YFP) (protein, UniProt Q9LSS5 1-564)
chain: T1 sequence
Regarding B2, the binding result was “no binding” in assay [6], “no binding” in assay [7] and “binds” with YN-ROP11.
